Experimental data as given in publication PMC12136788.
Some of the results follow.

T1: UNK ZnF1-6 (called full-length) (human, UniProt Q9C0B0 30-357)
T1 sequence: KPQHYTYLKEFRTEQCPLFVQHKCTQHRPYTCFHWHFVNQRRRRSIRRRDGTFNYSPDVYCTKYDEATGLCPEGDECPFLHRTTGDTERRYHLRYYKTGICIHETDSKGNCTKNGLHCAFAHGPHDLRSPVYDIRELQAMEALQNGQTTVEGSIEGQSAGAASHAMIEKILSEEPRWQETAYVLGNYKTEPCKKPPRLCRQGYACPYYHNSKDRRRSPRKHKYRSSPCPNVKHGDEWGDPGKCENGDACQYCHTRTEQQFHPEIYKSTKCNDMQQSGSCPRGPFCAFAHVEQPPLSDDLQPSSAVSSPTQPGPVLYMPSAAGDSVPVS

B1: chr1:167421552:167421653:+|3pUTR|ENSG00000143190|unk|total|mutant (ssRNA)
RNA: GGGAGUUCUACAGUCCGACGAUCUUUUCUUCUAACCUUAUUCAUUAAGCCGUUCCUUGUUUUGGCCCUUCUACUCUUGGCCUCCGCUAAAAGCAGUAAAUGUGAGUGAAUUUUAUGUUGAUUAUGUCACCUGGAUCUCCUUUCCAACAGAGGAUUGAGCAUCA
B2: chr9:74692981:74693082:+|3pUTR|ENSG00000198963|unk|FALSE|unique (ssRNA)
RNA: GGGAGUUCUACAGUCCGACGAUCUUUUAUAUUACUUUAGAAUGUAAUAGGUUUUUGUCCUUAUUUUAUGUCCUGUAAAUUAUUAGUUCAAUACUGUUAGCAUUCCCGGAUAAUGCACACAUGAUUUCUGAAUGUUUUCUGUAACAACAGAGGAUUGAGCAUCA
B3: chr5:90513983:90514084:+|3pUTR|ENSG00000113356|unk|total|mutant (ssRNA)
RNA: GGGAGUUCUACAGUCCGACGAUCAAAUACACUGAAGAUAAAGGUUAUUUCUUUUUUCCGCUUUGAAUUUGUCAUGACCAUUUCCGUCUUGCAGACCGCAGGGCAGCCCCUUGGGGCAAGGAUUUACUCUGGGAGGUACCGUUACAACAGAGGAUUGAGCAUCA
B4: chr2:73958838:73958951:+|3pUTR|ENSG00000114956|unk|total|mutant (ssRNA)
RNA: GGGAGUUCUACAGUCCGACGAUCCCAGCCCCUCUCAUCCCUGGAGCACUCUGCCGCUCAAGAGCUGGUUUGUUAAUUAUUGUCCGACUUUGCCAUUGUUUUCUUUUGUACCUGAAGCAUUUUGAAAAUAAAGUUUACUUAAGUCAACAGAGGAUUGAGCAUCA
B5: chr22:21448335:21448436:+|3pUTR|ENSG00000169635|unk|total|mutant (ssRNA)
RNA: GGGAGUUCUACAGUCCGACGAUCGCAGUCCUGGCCCCCGGCCACUGUCUCGGGGCCCACCUCUCGCCCCUCAUCUUGGUAAUCCGCCAGCCUCAGAUACUUCUGUGGGCCCUGAAGUGGGCUCUCAAGGUCAGACCAAGGUUGCAACAGAGGAUUGAGCAUCA
B6: chr12:25205306:25205412:-|3pUTR|ENSG00000133703|unk|total|mutant (ssRNA)
RNA: GGGAGUUCUACAGUCCGACGAUCGUCAUAUCAAACAUUAAAAAUGACCACUCUUUUAAUUGAAAUUAACUUUUAAAUGUUUACCGGAGUAUGUGCUGUGAAGUGAUCUAAAAUUUGUAAUAUUUUUGUCAUGAACUGUACUACCAACAGAGGAUUGAGCAUCA
B7: chr8:65707876:65707977:+|CDS|ENSG00000066855|unk|total|mutant (ssRNA)
RNA: GGGAGUUCUACAGUCCGACGAUCCCUGCUGCCCUCACCGCAGAGGCUCUGAAAAAGAAAUUUGCUUAUCGGUAUCGAAGUGACCGCCAAGAUGAAGUUGAAAAAGGAAUUCCAAAGUCUGAAUCAGAGGCCACCUCAGAGAGACAACAGAGGAUUGAGCAUCA
B8: chr13:106491261:106491362:-|3pUTR|ENSG00000125266|msi1|total|mutant (ssRNA)
RNA: GGGAGUUCUACAGUCCGACGAUCACAAUAAUGAGAGCAAAUGCAAAAAUAACCAAGUCCUCCGAAGGCAUCUCACGGAACCGCCGACCCGGAAGUACGAGCCCCACAGAGCAGGAAGCCGAUGUGACUGCAUCAUAUAUUUAACAACAGAGGAUUGAGCAUCA
B9: chr2:224001733:224001845:-|CDS|ENSG00000135919|unk|FALSE|bound_elsewhere (ssRNA)
RNA: GGGAGUUCUACAGUCCGACGAUCGGCCUCUGUGACGCUGCCUUCCAUCUGCUCCCACUUCAAUCCUCUGUCUCUCGAGGAACUAGGCUCCAACACGGGGAUCCAGGUUUUCAAUCAGAUUGUGAAGUCGAGGCCUCAUGACAACAACAGAGGAUUGAGCAUCA
B10: chr16:66769962:66770309:-|CDS|ENSG00000249961|control|control|control (ssRNA)
RNA: GGGAGUUCUACAGUCCGACGAUCCUCCAUGCAGAUCGGAUUGGUCGAGGUAGCAAAGCAGAAGAUGAGGAUAAAAGCCAUUCUAGACAGUUACAGAGUUAUAAGUCCCAUGGAGUCAUGUCUAAAGCAUGUACAAAUGAUGACCAACAGAGGAUUGAGCAUCA
B11: ENSG00000070961:be:win_1801|CDS|ENSG00000070961|bound_else_gene|NA|bound_elsewhere_windowed (ssRNA)
RNA: GGGAGUUCUACAGUCCGACGAUCAAGGGUGCAUCUGAGAUAAUUCUGAAAAAGUGUUUCAAAAUCUUGAGUGCUAAUGGUGAGGCAAAAGUAUUCAGACCAAGGGACCGUGAUGAUAUUGUAAAAACUGUGAUUGAACCGAUGCAACAGAGGAUUGAGCAUCA
B12: chr15:67202635:67202736:-|3pUTR|ENSG00000103591|msi1|total|mutant (ssRNA)
RNA: GGGAGUUCUACAGUCCGACGAUCUGCCAAAAUUGCCCUUAUCAUGUUGGCUGCCUGACUUGUUUACCGGGUCCCCUUAAUUUCCGUUUUCCGCCGGAGGUUAAGGAGAAAUCUUUUUUUUCCUCAGUAUAUUGUAAGAGAGUGCAACAGAGGAUUGAGCAUCA
B13: chr12:64128047:64128160:+|CDS|ENSG00000196935|unk|total|mutant (ssRNA)
RNA: GGGAGUUCUACAGUCCGACGAUCGGCAGCCUGACCAACAUCAGCCGGCACGACUCCCUCAAGAAGAUCGACAGCCCUCCCAUCCGAAGGUCCACGUCAUCAGGGCAAUACACGGGCUUCAAUGACCACAAGCCACUGGACCCACAACAGAGGAUUGAGCAUCA
B14: chr10:116672031:116672132:-|3pUTR|ENSG00000165868|msi1|total|mutant (ssRNA)
RNA: GGGAGUUCUACAGUCCGACGAUCCCUUUCCUGCCUUGCAUUAAUGCUAUCUCCCUGUGUACUGUUUCUCUUAAAUGAGCAGACCGAAAUCUGCAGUGUUGGCAGACCGGUGAUGGAGAGGAUGAUAAUUUUAUCUUCUGGCCACAACAGAGGAUUGAGCAUCA
B15: chr9:34635388:34635489:-|3pUTR|ENSG00000147955|msi1|total|mutant (ssRNA)
RNA: GGGAGUUCUACAGUCCGACGAUCGGGAUAUCCAUGCUUAUGUAUCCAAACACAGAGACCCAUGGGAACAAAUGAGACACAUACCGAUACUGAGACCUGUGUGUACAGCCGGACCAUGCACUCACACCCAUCUGGAGAGGGAGCCAACAGAGGAUUGAGCAUCA
B16: chr17:63766011:63766126:-|CDS|ENSG00000108588|unk|FALSE|unique (ssRNA)
RNA: GGGAGUUCUACAGUCCGACGAUCGGUGUUUGGGAGUGUCUCUGAAGCCAAGUUUGAUGAUUUUGAGGAUGAGGAGGACAUAGUAGAGUAUGAUGAUAAUGACUUCGCUGAAUUUGAGGAUGUCAUGGAAGACUCUGUUACUGACAACAGAGGAUUGAGCAUCA
B17: chr3:10101824:10101929:+|3pUTR|ENSG00000144554|unk|FALSE|unique (ssRNA)
RNA: GGGAGUUCUACAGUCCGACGAUCAAAAUCUCUGAGUCAUGAUUCUGGACUUUGGGAGCUAGUUUUGAAACUCUGAUUUAUUGUAGAACUUAGGCUUGUACCAAUUUUACAAAUAAAUUCUGUUCUAAGUUCUGCCUCAGUUGCCAACAGAGGAUUGAGCAUCA
B18: chr4:48851844:48851957:+|CDS|ENSG00000109180|unk|FALSE|unique (ssRNA)
RNA: GGGAGUUCUACAGUCCGACGAUCAUAUGACUCAAGUGUGAGUGGUCAAUCAUCUUUUGUGACAUCCCCAGCAGCAGACAACAUAGAAAUGCUUCCUCAUUAUGAGCCAAUUCCAUUCAGUUCUUCUAUGAAUGAAUCUGCUCCCAACAGAGGAUUGAGCAUCA
B19: chr19:41259979:41260080:+|3pUTR|ENSG00000167601|msi1|FALSE|unique (ssRNA)
RNA: GGGAGUUCUACAGUCCGACGAUCCCUGUCUUCCUACCUAUCCCACCUCCAUCCCAGACAGGUCCCUCCCCUUCUCUGUGCAGUAGCAUCACCUUGAAAGCAGUAGCAUCACCAUCUGUAAAAGGAAGGGGUUGGAUUGCAAUACAACAGAGGAUUGAGCAUCA
B20: chr1:227780961:227781062:+|3pUTR|ENSG00000143740|unk|total|mutant (ssRNA)
RNA: GGGAGUUCUACAGUCCGACGAUCCCUGGAAGAGGCCGCCCUCGUCUUGUCUCGGCUCCCUUUCAUGGACAGACUGGCCUUCUCCGCUGUACUAUAAAUUUGUGAGUGAAGUCCGAGCCCAGCUCACUCCGCCAGCUCACUUUGCAACAGAGGAUUGAGCAUCA
B21: chr9:125437660:125437767:-|3pUTR|ENSG00000119487|unk|FALSE|unique (ssRNA)
RNA: GGGAGUUCUACAGUCCGACGAUCUGAUGUCCUUACUGUCCCCAGCCAGGGCCGGGGACCGGUGUUUCACUGAGGACCUGCAUUAGAAACAUUUUUUAAAUUGUUGUACAGGAAGAGAUGUGUCUAAAACAGCAUCUUAAAGCUCAACAGAGGAUUGAGCAUCA
B22: chrX:41141081:41141111:+|CDS|ENSG00000124486|msi1_unk|FALSE|overlapping (ssRNA)
RNA: GGGAGUUCUACAGUCCGACGAUCCACUCUUCAUACAGUGAAAAAGUACUUUCUUCCAAUAAUAGAAAUGGUUCCACAGUUUUUAGAAAACUUAACUGAUGAAGAACUGAAAAAAGAAGCAAAGAAUGAAGCCAAAAAUGAUGCCAACAGAGGAUUGAGCAUCA

The binders below were run against T1, UNK ZnF1-6 (called full-length) (assay: nsRBNS (natural sequence RNA bind-n-seq); RBNS binding buffer (assumed for nsRBNS): 25 mM Tris pH 7.5, 150 mM KCl, 3 mM MgCl2, 0.01% Triton X-100, 500 ug/ml BSA, 20 U/ml SUPERase-In, 4 C; UNK is unkempt and MSI1 is Musashi-1; names of the RNAs are library labels; protein concentration not given here; high values mean tight binding).
B1 gave a binding signal of 0.442 enrichment R.
Work on B2 yielded a binding signal of 1.23 enrichment R.
Binder B3 has a binding signal of 0.502 enrichment R.
With B4 the binding signal was 0.586 enrichment R.
B5 showed a binding signal of 0.697 enrichment R.
B6 showed a binding signal of 0.619 enrichment R.
B7 showed a binding signal of 0.497 enrichment R.
B8 showed a binding signal of 0.792 enrichment R.
With B9 the binding signal was 0.698 enrichment R.
With B10 the binding signal was 0.819 enrichment R.
With B11 the binding signal was 0.56 enrichment R.
B12 was tested, and the binding signal was 0.468 enrichment R.
In the case of B13, the binding signal is reported as 0.738 enrichment R.
With B14 the binding signal was 0.548 enrichment R.
For B15, the binding signal was 0.886 enrichment R.
With B16 the binding signal was 0.665 enrichment R.
B17 gave a binding signal of 0.768 enrichment R.
B18 showed a binding signal of 0.365 enrichment R.
B19 was tested, and the binding signal was 0.71 enrichment R.
Work on B20 yielded a binding signal of 0.647 enrichment R.
In the case of B21, the binding signal is reported as 0.967 enrichment R.
B22 showed a binding signal of 1.13 enrichment R.
